The other results are listed elsewhere or left out. The energies were worked out here from pooled read counts, against the library average; single values are noisy.
target: T1, Pho4 (S. cerevisiae) (UniProt P07270); test: relative binding free energy (BET-seq); higher = weaker binding; details: reference: library average
T1 sequence: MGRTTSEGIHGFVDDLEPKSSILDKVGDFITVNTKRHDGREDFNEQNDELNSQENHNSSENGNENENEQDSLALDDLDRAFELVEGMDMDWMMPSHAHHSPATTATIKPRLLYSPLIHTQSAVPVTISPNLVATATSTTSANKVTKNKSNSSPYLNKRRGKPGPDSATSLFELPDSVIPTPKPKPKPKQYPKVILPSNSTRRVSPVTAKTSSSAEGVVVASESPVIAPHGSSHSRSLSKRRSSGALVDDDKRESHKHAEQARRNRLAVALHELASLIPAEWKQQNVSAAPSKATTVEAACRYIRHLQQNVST

Row | Sequence | relative binding free energy [kcal/mol]
1 | AGAGGCACGTGGAAGA | 0
2 | TGAGGCACGTGAATAG | 0.08
3 | TAAGGCACGTGGTTCA | -0.27
4 | TAATTCACGTGATGGC | 0.33
5 | TATCGCACGTGGGGCT | -0.25
6 | CAGAGCACGTGTGGGT | -0.04
7 | AAATTCACGTGTTGGG | 0.18
8 | GATTTCACGTGAGGTT | 0.46
9 | ATAGACACGTGTGTCG | -0.08
10 | GTAATCACGTGGTTAA | 0.07
11 | GTGGGCACGTGATAGT | -0.08
12 | TCGTGCACGTGGATTT | 0.17
13 | TAAAACACGTGTTTTT | 0.02
14 | TATCTCACGTGTTCTT | 0.24
15 | TGAGTCACGTGTGAAT | 0.32
16 | TGGTCCACGTGGGTTC | -0.06
17 | GTCAGCACGTGGCGTG | -0.05
18 | CTGTTCACGTGTCAGG | 0.2
19 | TATGGCACGTGTAGGC | 0.07
20 | GATGACACGTGAGTAG | 0.31
21 | GGCAGCACGTGGTTTG | -0.08
22 | ATATTCACGTGTGTTT | 0.21
23 | ATCGGCACGTGGGTGA | -0.3
24 | ATGGACACGTGTATTT | 0.19
25 | TTTTACACGTGCCTGG | 0.04

Row | Sequence | relative binding free energy [kcal/mol]
26 | GCTGGCACGTGTGGCG | 0.03
27 | GGTAGCACGTGCATGA | 0.01
28 | GGGTTCACGTGAGAAA | 0.35
29 | TGTAGCACGTGGTTAC | -0.1
30 | AGGGTCACGTGTATAT | 0.13
31 | AGCGCCACGTGGTGGA | -0.06
32 | TGTGGCACGTGATGGA | 0.04
33 | TGGGTCACGTGAGTAC | 0.2
34 | GGTTGCACGTGTAGAC | -0.05
35 | GGTCGCACGTGCGTGT | -0.11
36 | CGTTTCACGTGTATTT | 0.2
37 | TGGCACACGTGTGTGG | -0.04
38 | GTGGTCACGTGGGCCG | 0.01
39 | ATTAGCACGTGAAATG | 0.21
40 | CTTTTCACGTGTAGTA | 0.28
41 | GTGTCCACGTGGGAGC | 0.05
42 | ATAATCACGTGCTGTG | 0.07
43 | TAATACACGTGAAGTA | 0.42
44 | AGATGCACGTGAGGGG | 0.29
45 | TCGTTCACGTGCGGAG | 0.41
46 | TTTCTCACGTGGGGAT | 0.12
47 | GGGCTCACGTGAGTGT | 0.39
48 | ATGTACACGTGGCGTG | -0.06
49 | AGGGTCACGTGCGGGA | 0.09
50 | CTGTGCACGTGTGTAA | 0

Row | Sequence | relative binding free energy [kcal/mol]
51 | TGATGCACGTGCGGTC | -0.06
52 | TGAATCACGTGGGTTA | 0.1
53 | AAGATCACGTGTGGGT | 0.15
54 | GGAAGCACGTGGCTGG | -0.08
55 | ATAAACACGTGGTCGT | 0.04
56 | TTGTGCACGTGCGTAT | -0.12
57 | GAATGCACGTGTTTGA | 0.08
58 | TCGGCCACGTGTGTGA | 0.05
59 | GGGCGCACGTGGAGCG | -0.02
60 | TGGTTCACGTGAGCGC | 0.3
61 | CGGTGCACGTGAGGTG | 0.22
62 | TGTCGCACGTGAAGTA | 0.22
63 | AGATTCACGTGATTAT | 0.25
64 | GGTAGCACGTGGCGAT | -0.13
65 | GTAAACACGTGCGGGG | -0.02
66 | TATCTCACGTGGATGG | 0.26
67 | GTATACACGTGCATGT | 0.01
68 | AGGCTCACGTGGGAGT | 0.15
69 | AAATTCACGTGATGCT | 0.39
70 | TACGGCACGTGTTATG | -0.21
71 | AGCAACACGTGGTGTT | -0.08
72 | TGTAACACGTGTGGTT | 0.15
73 | GTGGTCACGTGGCAAG | 0.02
